Data taken from PubChem BioAssay AID504332 (National Center for Advancing Translational Sciences (NCATS), 2011).
Several values for one entry are separate records, joined by “and”; a condition that tells them apart may be missing. Identical values can stand only once. About 31,000 (8.9%) of roughly 350,000 compounds were called active. This list was built around the results that the source calls inconclusive (neither active nor inactive); the mix of calls is not that of the screen. The call rests on the fitted dose curve; in most records, active means well fitted inhibition curve with a large enough effect; inconclusive means small, poorly fitted or top-dose-only effect; inactive means no such curve, though single readings can be large or run the other way. Potencies beside an inconclusive call are fits to weak or partial responses and may not hold up.

Target: Histone-lysine N-methyltransferase EHMT2 (Homo sapiens) (UniProt Q96KQ7)
Assay: qHTS Assay for Inhibitors of Histone Lysine Methyltransferase G9a; further: nearly all actives have a fitted effect of over 75% in size
Details: G9a H3K9 monomethylation, AlphaScreen, 2 h; activity, negative = inhibition: at 59 µM (top of the series) unless noted
Outline: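 Methyltransferase reactions run at room temperature for 2 h (20 nM enzyme, 500 nM biotin-H3K9 peptide, 20 uM SAM) after a 15 min compound preincubation; product detected by AlphaScreen beads and anti-H3K9me1 antibody.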
On the % scale 0 is the no-effect control and ±100 the full control effect; potency means the concentration at half of the fitted maximal effect; tags describe the fitted curve by direction and shape.

UniProt Q96KQ7, sequence (Q96KQ7 whole entry, looked up): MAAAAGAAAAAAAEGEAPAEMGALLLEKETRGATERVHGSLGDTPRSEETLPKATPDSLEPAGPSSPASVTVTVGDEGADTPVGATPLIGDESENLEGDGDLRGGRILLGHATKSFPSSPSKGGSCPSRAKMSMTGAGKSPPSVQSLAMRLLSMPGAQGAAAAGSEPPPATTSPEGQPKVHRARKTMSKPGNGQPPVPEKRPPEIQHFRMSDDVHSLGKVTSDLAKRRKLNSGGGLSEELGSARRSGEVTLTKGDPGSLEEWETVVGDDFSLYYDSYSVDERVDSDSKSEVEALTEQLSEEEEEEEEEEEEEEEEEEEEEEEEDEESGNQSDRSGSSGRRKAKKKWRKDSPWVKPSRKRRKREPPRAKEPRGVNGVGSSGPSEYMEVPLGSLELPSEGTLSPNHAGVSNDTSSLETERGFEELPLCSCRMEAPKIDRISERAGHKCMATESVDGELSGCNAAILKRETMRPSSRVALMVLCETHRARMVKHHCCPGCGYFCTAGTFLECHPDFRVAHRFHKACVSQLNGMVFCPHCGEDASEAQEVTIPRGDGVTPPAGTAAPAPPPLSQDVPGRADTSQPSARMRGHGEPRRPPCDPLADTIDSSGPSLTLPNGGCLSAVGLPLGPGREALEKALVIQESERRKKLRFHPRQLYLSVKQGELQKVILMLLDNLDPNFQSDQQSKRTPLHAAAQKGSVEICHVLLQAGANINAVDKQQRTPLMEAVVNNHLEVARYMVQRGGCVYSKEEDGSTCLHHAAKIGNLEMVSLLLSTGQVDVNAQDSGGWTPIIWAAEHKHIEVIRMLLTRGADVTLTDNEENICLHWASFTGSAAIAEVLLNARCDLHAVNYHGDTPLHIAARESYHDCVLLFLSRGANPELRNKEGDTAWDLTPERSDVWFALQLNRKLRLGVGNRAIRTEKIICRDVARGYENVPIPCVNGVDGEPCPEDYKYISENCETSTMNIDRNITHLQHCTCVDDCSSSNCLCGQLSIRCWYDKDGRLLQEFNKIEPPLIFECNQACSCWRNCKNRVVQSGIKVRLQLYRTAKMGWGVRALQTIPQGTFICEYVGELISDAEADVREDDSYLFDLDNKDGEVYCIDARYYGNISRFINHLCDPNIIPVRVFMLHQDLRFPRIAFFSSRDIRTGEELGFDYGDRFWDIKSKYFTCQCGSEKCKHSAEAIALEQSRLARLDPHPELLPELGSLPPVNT

Compound | Potency | activity, negative = inhibition
COc1ccc(CCN2CCCn3c2nc2c3c(=O)n(CC(N)=O)c(=O)n2C)cc1OC | inconclusive: 1.26 µM [inhibitor, full curve] | 
Cn1cccc1C(=O)NC(=O)COC(=O)CNC(=O)CNC(=O)c1ccc(Cl)cc1Cl | inconclusive: 50.1 µM [inhibitor, partial curve] | 
Cc1ccc(NC(=O)CSc2nccn2C2CCCC2)cc1Cl | inconclusive: 31.6 µM [inhibitor, single point] | 
O=C(CSCc1cnn(-c2ccccc2)c1-n1cccc1)N1CCN(Cc2ccccc2)CC1 | active: 39.8 µM | 
Cc1ccc(/C=C/C(=O)Nc2cccc3cccnc23)o1 | inconclusive: 39.8 µM [inhibitor, single point] | 
CCCOP(=O)(c1ccc(N(C)C)cc1)C(O)c1ccc(Cl)cc1 (configuration not stated) |  | inactive: 9.64% [at 102 µM]
Cc1cc(Cl)ccc1OCC(=O)N(Cc1ccc(N(C)C)cc1)C1CCS(=O)(=O)C1 (configuration not stated) | active: 10 µM | 
CN(CC(=O)Nc1ccccc1Sc1ccccc1)C1CCCCC1 |  | inactive: 96.4%
Cc1ccc(Nc2c(-c3ccc(C)o3)nc3cnccn23)cc1 | active: 31.6 µM | 
CCOC(=O)c1sc2nc(COC(=O)c3c(F)cccc3F)[nH]c(=O)c2c1C | inconclusive: 63.1 µM [inhibitor, partial curve, poor fit] | 
O=C(c1cccs1)N1CCN(Cc2ccncc2)CC1 | active: 7.94 µM | 
CCC(C)NC(=O)c1cnn(-c2cccc(F)c2)c1-n1cccc1 (configuration not stated) |  | inactive: 0.465%
Cc1ccc(OCC(=O)Nc2nonc2-c2ccc(Br)cc2)cc1 | inconclusive: 31.6 µM [inhibitor, partial curve, poor fit] | 
COc1ccc(N2CCN(C(c3ccc(F)cc3)c3sc4nc(-c5ccco5)nn4c3O)CC2)cc1 (configuration not stated) | inconclusive: 28.2 µM [inhibitor, single point] | 
Brc1ccc(Oc2nsnc2N2CCOCC2)cc1 | active: 39.8 µM | 
COc1cccc(CNC(=O)C2CCC(CNS(=O)(=O)c3cccc4nsnc34)CC2)c1 (configuration not stated) | inconclusive: 79.4 µM [inhibitor, partial curve] | 
COCCN1C(=O)C(=O)/C(=C(/O)c2cccc(OC)c2)C1c1ccncc1 (configuration not stated) | active: 50.1 µM | 
CN1CCc2c(sc(/N=C/c3c[nH]c4ccccc34)c2C(N)=O)C1 | active: 44.7 µM | 
O=C(COc1ccc(Br)cc1)NNC(=O)c1ccc(-n2cncn2)c([N+](=O)[O-])c1 | inconclusive: 0.794 µM [inhibitor, partial curve, poor fit] | 
COCC(=O)N1CCC[C@@]2(CCN(c3ncccn3)C2)C1 |  | inactive: -6.36% [at 12.7 µM]
CCOc1cc2[nH]c(=S)n(Cc3ccc(C(=O)NCCOC)cc3)c(=O)c2cc1OCC | inconclusive: 7.08 µM [inhibitor, single point] | 
CCOc1ccc(CCNC(=O)c2nnn(CC(=O)Nc3ccc(C)cc3)c2N)cc1OCC | inconclusive: 39.8 µM [inhibitor, single point] | 
CCN(CC)CC#CCC(C)(c1ccccc1)c1ccccc1 | inconclusive: 8.91 µM [inhibitor, single point] | 
CC(=O)Nc1ccc(SCC(=O)c2cc(C)ccc2C)cc1 | inconclusive: 50.1 µM [inhibitor, partial curve, poor fit] | 

Compound | Potency | activity, negative = inhibition
Cc1nc2ccccn2c1CN(C)C(=O)C1CCC(=O)N(CCc2cccc(F)c2)C1 (configuration not stated) |  | inactive: -6.83% [at 102 µM]
O=C(O)CNC(=O)c1ccc(NC(=O)/C(=C/c2ccccc2)NC(=O)c2ccccc2)cc1 | inconclusive: 0.251 µM [inhibitor, partial curve, poor fit] | 
CCCC(=O)Nc1ccc2nc(SCC(=O)N3CCOCC3)sc2c1 |  | inactive: 8.78%
CCN(CC)c1ccc(/C=N/NC(=O)CNC(=O)/C=C/c2ccco2)cc1 | inconclusive: 63.1 µM [inhibitor, partial curve, poor fit] | 
COc1cccc(N2CCN(CC(=O)NC3=Nc4ccccc4N=C(C)C3c3ccccc3)CC2)c1 (configuration not stated) |  | inconclusive: -66.4% [inhibitor]
CC(C)(C)OC(=O)NCCCC[C@H](NC(=O)c1nc[nH]c1C(=O)N1CCN(C(=O)OC(C)(C)C)CC1)C(=O)OC(C)(C)C |  | inconclusive: -54.3% [inhibitor]
Cc1nc2cnc(N3CCOCC3)nc2n(Cc2ccc(F)cc2)c1=O |  | inactive: -1.1% [at 0.501 µM]
COc1ccc2cc3cc(C(=O)N4CCN(C5CCCCC5)CC4)oc3nc2c1 | inconclusive: 35.5 µM [inhibitor, partial curve, poor fit] | 
CCOC(=O)c1ccc(N2C(=O)CC(N3CCC(Nc4ccc(F)cc4)CC3)C2=O)cc1 (configuration not stated) | active: 10 µM | 
CCN1CCN(C(=O)CCc2nnc3ccc(N4CCN(c5cccc(OC)c5)CC4)nn23)CC1 | inconclusive: 35.5 µM [inhibitor, partial curve] | 
CC(C)OCCCNC(=O)CN1C(=O)c2ccccc2Sc2ncccc21 |  | inactive: -4.89%
Cc1cc(N2CCN(C)CC2)nc(=S)[nH]1 | active: 39.8 µM | 
Fc1ccc(N2CCN(c3ncnc4[nH]ncc34)CC2)cc1 |  | inactive: -1.05%
COc1cccc(-c2ccc(-c3noc(-c4cccs4)n3)c(OC)n2)c1 | active: 1.26 µM | 
O=C(CNc1cc(S(=O)(=O)N2CCOCC2)ccc1NCC1CCCO1)Nc1ccc(F)c(F)c1 (configuration not stated) | inconclusive: 79.4 µM [inhibitor, single point] | 
Cc1ccc(OCCn2ccnc2)c(C)c1 | active: 70.8 µM | 
N#C/C(=C\c1ccc(-c2cccc(Cl)c2)o1)C(=O)Nc1cccc(C(F)(F)F)c1 |  | inactive: -48%
Cc1cc(C(F)F)nn1CC(=O)NC1CCCCCC1 | active: 79.4 µM | 
Cc1ccc(N2C(=O)c3ccccc3C2C(=O)c2cc(C)ccc2O)cc1 (configuration not stated) | active: 7.94 µM | 
CN(C)S(=O)(=O)c1ccc(NC(=S)NC(=O)c2cccs2)cc1 |  | inactive: -0.942% [at 102 µM]
O=S(=O)(c1ccc(Cl)cc1)N1CCC(n2cccc2)CC1 | inconclusive: 50.1 µM [inhibitor, partial curve] | 
c1ccc(-n2ncc3c(NCCN4CCCCC4)ncnc32)cc1 | active: 44.7 µM | 
CCOC(=O)c1cc2sccc2n1CC(=O)Nc1ccc(OC)cc1OC | active: 12.6 µM | 
NS(=O)(=O)c1ccc(CCNc2nc(CN3CCOCC3)nc3sc4c(c23)CCC4)cc1 | active: 12.6 µM | 

Compound | Potency | activity, negative = inhibition
c1ccc(Oc2cccc(OCCCn3cncn3)c2)cc1 |  | inactive: 6.76% [at 12.7 µM]
COc1cc(NC(=O)CSc2ncnc3sc4c(c23)CCC(C)C4)c(C(=O)O)cc1OC (configuration not stated) | active: 20 µM | 
O=C(NCc1cccnc1)c1ccc(-c2ccc(Cl)cc2)o1 | inconclusive: 50.1 µM [inhibitor, partial curve, poor fit] | 
O=C(Nc1cccc(C(F)(F)F)c1)c1cccc(NS(=O)(=O)c2ccc(O)c(C(=O)O)c2)c1 | inconclusive: 79.4 µM [inhibitor, single point] | 
CCOc1ccc(OCCC(=O)OCC(=O)Nc2cc(S(=O)(=O)N3CCOCC3)ccc2C)cc1 | inconclusive: 1.78 µM [inhibitor, partial curve, poor fit] | 
COc1ccc(Cl)cc1C(=O)NCc1cn(C)nc1C | inconclusive: 17.8 µM [inhibitor, single point] | 
Oc1ccc(NCc2ccc(OCc3ccccc3)cc2)cc1 | active: 1.26 µM and active: 7.94 µM | 
CCOC(=O)c1ccc(NC(=O)Cn2nnc3ccccc32)cc1 | inconclusive: 8.91 µM [inhibitor, single point] | 
CS(=O)(=O)N(CC(=O)NCCc1ccccc1)C1CCCCC1 | inconclusive: 25.1 µM [inhibitor, partial curve, poor fit] | 
C=CCSc1nc2[nH]ncc2c(=O)[nH]1 |  | inactive: 13.8% [at 102 µM]
COc1ccc(N2CCN(C(=O)c3cc4c(-c5cccc(OC)c5)nn(C)c4s3)CC2)cc1 | inconclusive: 3.55 µM [inhibitor, single point] | 
Cc1ccc2cc(CCl)c(Cl)nc2c1 |  | inactive: -27.6% [at 12.7 µM]
CC[C@H](C)[C@@H]1NC(=O)c2cc([N+](=O)[O-])cc(F)c2OCC[C@@H](C(N)=O)NC(=O)[C@H](CCCCN)NC1=O | inconclusive: 79.4 µM [inhibitor, single point] | 
CCCn1cnc2cc(NCc3ccc(OC)cc3OC)ccc21 | active: 2.82 µM | 
Cc1cccc(-c2noc(CNC(=O)c3ccccc3Br)n2)c1 |  | inactive: 1.19%
CN(C)S(=O)(=O)c1cc(NC(=O)COC(=O)Cc2cccc3ccccc23)ccc1Cl | inconclusive: 63.1 µM [inhibitor, single point] | 
O=C(Cc1cnn(-c2ccccc2)c1)c1ccc(O)c(O)c1O | active: 12.6 µM | 
O=C(C[n+]1ccc(/C=N/O)cc1)NC(=O)Nc1ccccc1 | inconclusive: 4.47 µM [inhibitor, single point] | 
Cc1nnc(NC(=O)CC(NC(=O)C(F)(F)F)c2ccccc2)s1 (configuration not stated) | active: 39.8 µM | 
Cc1c(-c2n[nH]c(=S)n2-c2ccc(Br)cc2)nnn1-c1ccc(Cl)cc1 | inconclusive: 4.47 µM [inhibitor, full curve] | 
CCOc1ccccc1C1N=C(c2ccc(OC)cc2)CC(c2ccccc2O)N1 (configuration not stated) | inconclusive: 35.5 µM [inhibitor, partial curve, poor fit] | 
O=C(CSc1nc2ccccc2n1CC(=O)N1CCCC1)Nc1nccs1 | inconclusive: 10 µM [inhibitor, single point] | 
CCCCCn1c(=O)[nH]c2cc(C(=O)NCc3ccccc3)ccc2c1=O |  | inactive: -7.36%
CC1CN(C(=S)Nc2cccc([N+](=O)[O-])c2)CC(C)O1 (configuration not stated) | inconclusive: 50.1 µM [inhibitor, partial curve] | 
